Reference: PubChem BioAssay (Tox21)
Values joined by “and” are separate entries in the source; they are usually repeats but may differ in a detail not shown here. Equal values may be shown once. Inconclusive results, whose numbers are uncertain, are shown with a selection of clear calls. For some assays here: Where the call is inconclusive, the potency comes from a doubtful curve fit. Some structures have more than one record in an assay (separate samples or runs), and their calls can disagree. Active and inactive are the calls of the source. Unless noted, calls follow the shape of the dose curve; as a rule, active = well fitted curve in the direction sought with a large enough effect in the repeat runs; inconclusive = weak or mixed curves; inactive = no such curve, though single readings can be large; an effect the other way counts as inactive or inconclusive.

Experiments:
[1] = molecular target: Peroxisome proliferator-activated receptor gamma (Homo sapiens) (UniProt P37231); assay: qHTS assay to identify small molecule antagonists of the peroxisome proliferator-activated receptor gamma (PPARg) signaling pathway (AID 743191; calls by dose curve; also: % is scaled to controls: 0 for no effect and ±100 for the full control effect; nearly all actives have a fitted effect of over 30% in size); details: HEK293H PPARg-UAS-bla, beta-lactamase ratio, antagonist, 17 h; ratio activity, negative = inhibition: at 62.6 µM (top of the series) unless noted
Outline: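 GeneBLAzer PPARg UAS-bla HEK293H cells carrying a UAS-driven beta-lactamase reporter were plated at 3000 cells/well, preincubated 5 h at 37C, then given compound for 17 h at 37C; LiveBLAzer B/G FRET substrate was read after 1 h at room temperature.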

[2] = qHTS assay for small molecule agonists of the antioxidant response element (ARE) signaling pathway (AID 743202; active = well fitted activation curve with a large enough effect in the signal ratio in the repeat runs, not every such curve was filed as active; inconclusive = weak or mixed curves, or effect the other way; inactive = no such curve, though single readings can be large or run the other way; the % refers to the signal ratio; also: potency is read from the fitted curve at half-maximal effect; as to activation: % is scaled to controls: 0 for no effect and ±100 for the full control effect); details: HepG2 ARE-bla reporter, beta-lactamase FRET, 16 h
Outline: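 Compounds delivered in DMSO to ARE-bla HepG2 cells (2,000 cells/well, pre-incubated 5 h) and left 16 h at 37 C. LiveBLAzer B/G FRET substrate then added for 2 h at RT before fluorescence reading.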

[3] = qHTS assay to identify small molecule antagonists of the peroxisome proliferator-activated receptor delta (PPARd) signaling pathway - cell viability counter screen (AID 743213); details: PPARd-bla HEK293H viability, CellTiter-Glo luminescence, 17 h; viability change, negative = cytotoxic: at 62 µM (top of the series) unless noted; also: potency is read from the fitted curve at half-maximal effect; nearly all actives have a fitted effect of over 50% in size
Outline: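 Cytotoxicity counter screen: CellTiter-Glo luminescence read 30 min after addition, in the same wells as the reporter assay. There, PPARd UAS-bla HEK293H cells (3000/well) were treated 17 h at 37 C with compound and 300 nM L165041.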

[4] = molecular target: Bile acid receptor (Homo sapiens) (UniProt Q96RI1); assay: qHTS assay to identify small molecule antagonists of the farnesoid-X-receptor (FXR) signaling pathway (AID 743217; active = well fitted inhibition curve with a large enough effect in the signal ratio in the repeat runs, not every such curve was filed as active; inconclusive = weak or mixed curves, or effect the other way; inactive = no such curve, though single readings can be large or run the other way; the % refers to the signal ratio; also: % is scaled to controls: 0 for no effect and ±100 for the full control effect); details: HEK293T FXR-UAS-bla, beta-lactamase ratio, CDCA-stimulated, 16 h; activity change, negative = inhibition: at 62.6 µM (top of the series) unless noted
Outline: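 FXR-UAS-bla HEK 293T cells (beta-lactamase reporter) given compound plus chenodeoxycholic acid (50 uM final), 16 h at 37C. LiveBLAzer B/G FRET substrate added for 2 h at room temperature; fluorescence read.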

[5] = qHTS assay to identify small molecule antagonists of the vitamin D receptor (VDR) signaling pathway - cell viability counter screen (AID 743225); details: VDR-bla HEK293T viability, CellTiter-Glo luminescence, 16 h; viability change, negative = cytotoxic: at 61 µM (top of the series) unless noted; also: nearly all actives have a fitted effect of over 50% in size; also: potency is read from the fitted curve at half-maximal effect; as to viability change, negative = cytotoxic: % is scaled to controls: 0 for no effect and ±100 for the full control effect
Outline: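 Cytotoxicity counter screen read by CellTiter-Glo luminescence (30 min, room temperature) in the same wells as the VDR-bla antagonist readout. HEK 293T VDR-UAS-bla cells had 16 h at 37C with compound and 3 nM (final) 1-alpha,25-dihydroxyvitamin D3, then 2 h with FRET substrate.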

[6] = qHTS assay to identify small molecule agonists of the NFkB signaling pathway - cell viability counter screen (AID 1159515; calls by dose curve; also: nearly all actives have a fitted effect of over 55% in size; also: potency is read from the fitted curve at half-maximal effect)
Outline: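 NFkB-bla ME-180 cells, 2,000/well, plated overnight at 37 C; compound added for 5 hr at 37 C. Viability read in the same wells as the bla reporter, by CellTiter-Glo luminescence after 30 min at room temperature.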

[7] = qHTS assay to identify small molecule agonists of the endoplasmic reticulum stress response signaling pathway (AID 1159516; active = well fitted activation curve with a large enough effect in the signal ratio in the repeat runs, not every such curve was filed as active; inconclusive = weak or mixed curves, or effect the other way; the % refers to the signal ratio; also: potency is read from the fitted curve at half-maximal effect; as to activation: % is scaled to controls: 0 for no effect and ±100 for the full control effect); details: ESRE-bla HeLa, ER stress beta-lactamase reporter, 5 h; activation: at 61 µM (top of the series) unless noted
Outline: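 CellSensor ESRE-bla HeLa cells, 1,500 per well, plated overnight, then exposed to compounds for 5 hr at 37 C. Beta-lactamase reporter read with LiveBLAzer B/G FRET substrate after 2 hr at room temperature, 405 nm excitation, 460 and 530 nm emission.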

[8] = qHTS assay to identify small molecule antagonists of the peroxisome proliferator-activated receptor gamma (PPARg) signaling pathway - cell viability counter screen (AID 743194); details: PPARg-bla HEK293H viability, CellTiter-Glo luminescence, 17 h; Potency: co-treated with 50 nM rosiglitazone unless noted; activity change, negative = cytotoxicity: at 62.6 µM (top of the series), co-treated with 50 nM rosiglitazone unless noted; also: potency is read from the fitted curve at half-maximal effect; nearly all actives have a fitted effect of over 55% in size
Outline: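 PPARg-UAS-bla HEK293H cells were plated, rested 5 h at 37 C, then treated with compounds plus rosiglitazone (50 nM final) for 17 h at 37 C; viability was then read by CellTiter-Glo luminescence after 30 min at room temperature.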

[9] = qHTS assay for small molecule agonists of the antioxidant response element (ARE) signaling pathway - cell viability counter screen (AID 743203; calls by dose curve; also: potency is read from the fitted curve at half-maximal effect; nearly all actives have a fitted effect of over 55% in size)
Outline: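 ARE-bla HepG2 cells were plated, rested 5 h at 37C/5% CO2, then exposed to compounds in DMSO for 16 h. Viability was read as CellTiter-Glo luminescence after 30 min at room temperature, in the same wells as the ARE screen.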

[10] = qHTS assay for small molecule activators of the heat shock response signaling pathway - cell viability counter screen (AID 743209); details: HSE-bla HeLa viability, CellTiter-Glo luminescence, 5 h; activity change, negative = cytotoxicity: at 62.6 µM (top of the series) unless noted; also: potency is read from the fitted curve at half-maximal effect; nearly all actives have a fitted effect of over 50% in size
Outline: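 HSE-bla HeLa cells plated overnight, then exposed to Tox21 compounds (23 nL in DMSO) for 5 h at 37 C. After the bla reporter read, CellTiter-Glo was added in the same wells and luminescence read after 30 min at room temperature.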

[11] = qHTS assay for small molecule activators of the heat shock response signaling pathway (AID 743210; active = well fitted activation curve with a large enough effect in the signal ratio in the repeat runs, with a control signal flat, not every such curve was filed as active; inconclusive = weak or mixed curves; the % refers to the signal ratio; also: potency is read from the fitted curve at half-maximal effect); details: HeLa HSE-bla reporter, beta-lactamase ratio, 5 h; activation: at 62.6 µM (top of the series)
Outline: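 Reporter gene assay: HeLa cells stably bearing an HSE-bla construct, compound treatment 5 h at 37 C, LiveBLAzer substrate 2.5 h at RT, fluorescence intensity.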

[12] = molecular target: Vitamin D3 receptor (Homo sapiens) (UniProt P11473); assay: qHTS assay to identify small molecule agonists of the vitamin D receptor (VDR) signaling pathway (AID 743222; calls by dose curve; also: potency is read from the fitted curve at half-maximal effect); details: HEK293T VDR-UAS-bla, beta-lactamase FRET ratio, 16 h; activation: at 63.5 µM (top of the series) unless noted
Outline: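 VDR-bla cells plated 4 h at 37 C, then exposed to compounds for 16 h at 37 C. Beta-lactamase reporter activity measured by fluorescence after 2 h room-temperature loading with LiveBLAzer B/G FRET substrate.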

[13] = qHTS assay to identify small molecule agonists of the vitamin D receptor (VDR) signaling pathway - cell viability counter screen (AID 743224); also: potency is read from the fitted curve at half-maximal effect; nearly all actives have a fitted effect of over 50% in size
Outline: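 VDR-bla cells, 4 h after plating, exposed to compounds for 16 h at 37C; viability then read in the same wells as CellTiter-Glo luminescence after 30 min at room temperature, following the bla FRET read.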

[14] = qHTS assay to identify small molecule agonists of the peroxisome proliferator-activated receptor delta (PPARd) signaling pathway - cell viability counter screen (AID 743211); details: PPARd-bla HEK293H viability, CellTiter-Glo luminescence, 17 h; activity change, negative = cytotoxicity: at 62.6 µM (top of the series) unless noted; also: potency is read from the fitted curve at half-maximal effect; nearly all actives have a fitted effect of over 55% in size
Outline: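 Viability was measured as CellTiter-Glo luminescence (30 min, room temperature) in the same wells as the beta-lactamase readout. GeneBLAzer PPARd UAS-bla HEK293H cells received compound after 5 h plating and were incubated 17 h at 37 C.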

[15] = qHTS assay to identify small molecule antagonists of the farnesoid-X-receptor (FXR) signaling pathway - cell viability counter screen (AID 743221; active = well fitted cell-killing curve with a large enough effect in the repeat runs, not every such curve was filed as active; inconclusive = weak or mixed curves, or effect the other way; inactive = no such curve, though single readings can be large or run the other way); details: FXR-bla HEK293T viability, CellTiter-Glo luminescence, 16 h; activity change, negative = cytotoxicity: at 62.6 µM (top of the series) unless noted
Outline: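 Cytotoxicity counter screen run in the FXR-bla reporter wells: HEK 293T cells exposed to compound with 50 uM (final) chenodeoxycholic acid for 16 h, 37 C, then viability measured by CellTiter-Glo luminescence after 30 min, room temperature.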

[16] = activation: at 73.3 µM (top of the series) unless noted
Tags tell the direction and shape of the fitted curve or compound fluorescence and quenching.

Chain of UniProt Q96RI1 (Q96RI1 whole entry, looked up): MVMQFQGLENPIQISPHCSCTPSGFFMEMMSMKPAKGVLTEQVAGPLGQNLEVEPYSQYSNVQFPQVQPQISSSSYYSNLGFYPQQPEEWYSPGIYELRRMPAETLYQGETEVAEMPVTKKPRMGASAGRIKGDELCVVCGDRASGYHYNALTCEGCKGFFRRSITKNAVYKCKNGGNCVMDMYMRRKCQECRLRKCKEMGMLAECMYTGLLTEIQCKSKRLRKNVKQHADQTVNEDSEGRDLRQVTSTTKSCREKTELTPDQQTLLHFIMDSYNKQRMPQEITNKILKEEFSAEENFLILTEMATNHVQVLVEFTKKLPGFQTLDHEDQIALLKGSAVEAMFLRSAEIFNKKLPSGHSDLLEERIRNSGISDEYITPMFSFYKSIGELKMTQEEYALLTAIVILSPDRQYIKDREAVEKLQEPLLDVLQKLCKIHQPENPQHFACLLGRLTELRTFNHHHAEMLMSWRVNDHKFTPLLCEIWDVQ
Chain of UniProt P37231 (P37231 whole entry, looked up): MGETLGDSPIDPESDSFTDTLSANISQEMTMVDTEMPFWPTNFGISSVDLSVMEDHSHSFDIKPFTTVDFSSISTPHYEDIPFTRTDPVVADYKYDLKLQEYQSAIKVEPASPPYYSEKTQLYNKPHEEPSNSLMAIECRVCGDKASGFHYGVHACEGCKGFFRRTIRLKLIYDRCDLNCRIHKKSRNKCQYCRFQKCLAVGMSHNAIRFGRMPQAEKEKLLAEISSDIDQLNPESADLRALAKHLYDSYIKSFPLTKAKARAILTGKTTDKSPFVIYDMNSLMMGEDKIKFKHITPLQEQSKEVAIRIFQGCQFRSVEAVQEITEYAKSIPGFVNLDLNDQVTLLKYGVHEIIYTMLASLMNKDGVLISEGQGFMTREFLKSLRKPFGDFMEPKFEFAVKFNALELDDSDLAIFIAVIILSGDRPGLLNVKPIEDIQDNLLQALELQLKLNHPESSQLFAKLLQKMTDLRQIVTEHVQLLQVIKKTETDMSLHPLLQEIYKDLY
Chain of UniProt P11473 (P11473 whole entry, looked up): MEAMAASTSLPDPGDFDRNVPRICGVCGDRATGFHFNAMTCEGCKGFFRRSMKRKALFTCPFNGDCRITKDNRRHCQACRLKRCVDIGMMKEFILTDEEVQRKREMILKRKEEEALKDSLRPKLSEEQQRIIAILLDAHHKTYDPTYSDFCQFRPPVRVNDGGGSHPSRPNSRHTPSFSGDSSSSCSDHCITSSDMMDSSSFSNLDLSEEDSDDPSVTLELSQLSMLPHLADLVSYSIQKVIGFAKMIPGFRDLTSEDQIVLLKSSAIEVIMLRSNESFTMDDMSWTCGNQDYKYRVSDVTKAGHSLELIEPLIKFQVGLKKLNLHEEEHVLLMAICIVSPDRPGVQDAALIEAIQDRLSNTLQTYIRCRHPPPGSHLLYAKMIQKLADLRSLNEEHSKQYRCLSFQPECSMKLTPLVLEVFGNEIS

Row | SMILES | ratio activity, negative = inhibition [1] | Potency [2, 16] | Potency [3] | activity change, negative = inhibition [4] | Potency [5] | Potency [6] | Potency [7] | Potency [8] | Potency [9] | Potency [10] | Potency [11] | Potency [12] | Potency [13] | activation [2, 16] | activation ([2]; at 73.3 µM (top of the series)) | Potency [14] | Potency [15]
1 | Cc1ccc(N)cc1C | inconclusive: -4.1% [at 81.1 µM] | inactive | inconclusive: 1.56 µM [cytotoxic, single point] | inconclusive: 2.77% [at 81.1 µM] | inactive | inactive | inactive | – | – | – | – | – | – | – | – | – | –
2 | O=C(O)CCCOc1ccc(Cl)cc1Cl | – | inconclusive: 27.8 µM | inconclusive: 1.58 µM [cytotoxic, partial curve, poor fit] | – | inconclusive: 39.6 µM [cytotoxic, single point] | inconclusive: 25 µM [cytotoxic, partial curve, poor fit] | inconclusive: 4.99 µM [fluorescent, full curve] | inconclusive: 6.28 µM [rising, partial curve, poor fit] | active: 27.8 µM | inconclusive: 1.39 µM [cytotoxic, single point] | inconclusive: 62.8 µM [activator, single point] | inconclusive: 0.248 µM [fluorescent, full curve] | inconclusive: 62.8 µM [cytotoxic] | – | – | – | –
3 | CCCC[n+]1ccc(C)cc1 | – | – | active: 43.4 µM and inconclusive: 34.7 µM [cytotoxic, partial curve, poor fit] and inconclusive: 24.6 µM [cytotoxic, full curve, poor fit] | – | active: 48.7 µM and inconclusive: 22.2 µM [cytotoxic, single point] | inconclusive: 61.3 µM [cytotoxic, single point] | inconclusive: 54.7 µM [cytotoxic, single point] and inconclusive: 49 µM [activator, single point] | active: 48.7 µM [setting not given] | – | inconclusive: 9.91 µM [cytotoxic, partial curve, poor fit] | inconclusive: 54.7 µM | – | – | inconclusive: 25.1% [at 94.8 µM] | inactive: -7.44% | active: 48.7 µM | inconclusive: 54.7 µM [falling, single point]
